From PubChem BioAssay AID434955 (Southern Research Specialized Biocontainment Screening …, 2010)
This is one part of the list. Shown are side measurements of this screen, not its main read-out; they come without a call. The list favours compounds with an active or inconclusive main result.

Assay: beta-lactam sensitization of Mtb H37Rv, H37Rv (AID 434955);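 note: growth measured after seven days incubation then overnight dye step; 0% = bacteria only wells and 100% = bacteria with antibiotic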
Conditions: M. tuberculosis H37Rv growth with meropenem, percent inhibition; measured here: primary screen without meropenem; at 25 µM
`CC(=O)C1=C(C)NC(SCC(=O)c2ccc(Cl)cc2)=C(C#N)C1CC(C)C` (stereo not drawn) showed an inhibition of 20.6%.
`COC(=O)c1sc(-c2ccc(C(C)(C)C)cc2)cc1NC(=O)CCC(=O)O` gave an inhibition of 34.1%.
With `Cc1c(C2N3CC4(C)CN2CC(C)(C3)C4=O)c2ccccc2n1C` (stereo not drawn) the inhibition was 0.81%.
`NCC(=O)c1cccc2ccc[n+]([O-])c12` gave an inhibition of 5.02%.
Work on `CN(c1ccccc1)S(=O)(=O)c1ccc(NC(=O)COc2ccccc2)cc1` yielded an inhibition of 1.3%.
Work on `O=C(CC(Sc1ccc(Br)cc1)C(=O)O)c1ccc(Br)cc1` (stereo not drawn) yielded an inhibition of 37.9%.
Compound `C/C(Cc1ccccc1)=N\NC(=O)c1cccnc1` has an inhibition of -7.73%.
With `CCc1ccc(C(=O)COC(=O)CNC(=O)c2ccc(Br)o2)cc1` the inhibition was -2.89%.
For `CCc1cc(=O)oc2c(C)c(O[C@@H]3O[C@H](CO)[C@@H](O)[C@H](O)[C@H]3O)ccc12`, the inhibition was -4.26%.
For `Cc1ccc(Sc2nnc(Cc3ccccc3)c3ccccc23)cc1`, the inhibition was -0.87%.
Compound `O=C(CSc1nnc(CNC(=O)c2ccccc2)o1)Nc1ccc2c(c1)OCCO2` has an inhibition of 5%.
For `Cc1cc(C)cc(NC(=O)N2CCC(NC(=O)c3ccc(F)cc3)CC2)c1`, the inhibition was -1.7%.
`CN1CCN(c2ccccc2NC(=O)c2ccc(-c3ccc(Br)cc3)o2)CC1` gave an inhibition of 10.9%.
With `CC1CN(c2nc3c(c(=O)[nH]c(=O)n3C)n2Cc2ccccc2F)CC(C)O1` (stereo not drawn) the inhibition was 4.11%.
Compound `O=C1c2[nH]nc(-c3ccccc3O)c2C(c2cccc(Cl)c2)N1Cc1ccco1` (stereo not drawn) has an inhibition of 2.54%.
For `CCCNc1c(NS(=O)(=O)c2c(F)c(F)c(F)c(F)c2F)c(=O)oc2ccccc12`, the inhibition was 3.8%.
Work on `COC(=O)C1=CN(C)C=C(C(=O)OC)C1c1ccc(Cl)cc1Cl` yielded an inhibition of 0.81%.
`Cn1c(=O)c(=O)n(C)c2cc(S(=O)(=O)N3CCc4ccccc43)ccc21` gave an inhibition of -4.35%.
Work on `COc1cccc(CNC(=O)CCC2CCCN(C(=O)c3ccc(F)c(Cl)c3)C2)c1` (stereo not drawn) yielded an inhibition of 10.5%.
Compound `CCN(CC)C(=O)C(C)N(C#N)c1nc(SC)nc(N(C)C)n1` (stereo not drawn) has an inhibition of 3.55%.
Compound `CCOC(=O)c1oc2ccccc2c1NC(=O)c1cc(OC)cc(OC)c1` has an inhibition of 4.52%.
Compound `COc1ccc(N(CC(=O)NC2CCCCCC2)S(=O)(=O)c2ccc(C)cc2)cc1OC` has an inhibition of 0.68%.
With `Cc1[nH]c(C)c(S(=O)(=O)N2CCN(c3ccccc3)CC2)c1C(=O)N1CCCCC1` the inhibition was 0.85%.
Work on `CCN(Cc1ccccc1)S(=O)(=O)c1c[nH]c(C(=O)OC)c1` yielded an inhibition of -8.72%.
In the case of `COc1ccc(C(=O)N2CCN(c3ccc([N+](=O)[O-])c(NCCc4ccc(OC)c(OC)c4)c3)CC2)cc1`, the inhibition is reported as 2.65%.
In the case of `CCCC(=O)NC(c1ccccc1Cl)c1c(O)ccc2ccccc12` (stereo not drawn), the inhibition is reported as -2.61%.
`O=C(CN1C(=O)COc2ccccc21)N1CCCc2ccccc21` showed an inhibition of -1.64%.
Compound `CN1CCN(c2oc(-c3ccccc3)nc2S(=O)(=O)c2ccc(Br)cc2)CC1` has an inhibition of 11.7%.
